Drawing on publication PMC7290032, this text covers binding for one molecule.

Protein sequences, listed by entry. Tags and fused reporters are not part of them.
UniProt P27694: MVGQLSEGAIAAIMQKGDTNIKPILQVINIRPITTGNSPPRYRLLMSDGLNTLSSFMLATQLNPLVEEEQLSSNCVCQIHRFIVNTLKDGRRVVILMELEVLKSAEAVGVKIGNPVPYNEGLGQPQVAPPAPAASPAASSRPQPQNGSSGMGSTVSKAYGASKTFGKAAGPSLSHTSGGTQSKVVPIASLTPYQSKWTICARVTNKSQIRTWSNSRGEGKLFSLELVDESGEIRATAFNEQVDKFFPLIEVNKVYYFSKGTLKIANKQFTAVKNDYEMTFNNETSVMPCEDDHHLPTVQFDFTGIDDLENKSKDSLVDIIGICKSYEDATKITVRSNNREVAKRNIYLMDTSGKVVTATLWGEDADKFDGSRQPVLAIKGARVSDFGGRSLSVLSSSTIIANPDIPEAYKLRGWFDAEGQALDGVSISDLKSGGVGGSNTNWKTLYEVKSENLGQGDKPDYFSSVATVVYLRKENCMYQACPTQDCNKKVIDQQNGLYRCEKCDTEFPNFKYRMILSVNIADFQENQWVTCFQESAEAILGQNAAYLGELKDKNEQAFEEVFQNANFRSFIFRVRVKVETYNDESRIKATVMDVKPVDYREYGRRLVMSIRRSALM

This assay concerns the target HA-RPA1 (UniProt P27694). Briefly: co-IP; anti-HA agarose from lysates of HEK293T cells expressing the HA-tagged bait; 50 mM Tris-HCl pH 7.5, 1% NP40, 150 mM NaCl, 4 h at 4 °C; western blot of endogenous partners.

No constants are given. Whether binding was seen depends on the method and setting. Binding seen in cells or lysates may run through a third protein. Some entries that bind do so weakly or less than the wild type.

B1: MCM8IP (endogenous) (protein, UniProt Q8N3J3 1-647)
chain: MACSLQKLFAVEEEFEDEDFLSAVEDAENRFTGSLPVNAGRLRPVSSRPQETVQAQSSRLLLLHPTAPSEALGLPDLDLCLPASSTPSADSRPSCIGAAPLRPVSTSSSWIGNQRRVTVTEVLRETARPQSSALHPLLTFESQQQQVGGFEGPEQDEFDKVLASMELEEPGMELECGVSSEAIPILPAQQREGSVLAKKARVVDLSGSCQKGPVPAIHKAGIMSAQDESLDPVIQCRTPRPPLRPGAVGHLPVPTALTVPTQQLHWEVCPQRSPVQALQPLQAARGTIQSSPQNRFPCQPFQSPSSWLSGKAHLPRPRTPNSSCSTPSRTSSGLFPRIPLQPQAPVSSIGSPVGTPKGPQGALQTPIVTNHLVQLVTAASRTPQQPTHPSTRAKTRRFPGPAGILPHQQSGRSLEDIMVSAPQTPTHGALAKFQTEIVASSQASVEEDFGRGPWLTMKSTLGLDERDPSCFLCTYSIVMVLRKQAALKQLPRNKVPNMAVMIKSLTRSTMDASVVFKDPTGEMQGTVHRLLLETCQNELKPGSVLLLKQIGVFSPSLRNHYLNVTPNNLVHIYSPDSGDGSFLKPSQPFPKDSGSFQHDVAAKPEEGFRTAQNLEAEASPEEELPEADDLDGLLSELPEDFFCGTSS
Take B1: the binding result was “binds”.
